First the molecules themselves.
B1: GPR68, Q15743 (parent)
chain: MGNITADNSSMSCTIDHTIHQTLAPVVYVTVLVVGFPANCLSLYFGYLQIKARNELGVYLCNLTVADLFYICSLPFWLQYVLQHDNWSHGDLSCQVCGILLYENIYISVGFLCCISVDRYLAVAHPFRFHQFRTLKAAVGVSVVIWAKELLTSIYFLMHEEVIEDENQHRVCFEHYPIQAWQRAINYYRFLVGFLFPICLLLASYQGILRAVRRSHGTQKSRKDQIQRLVLSTVVIFLACFLPYHVLLLVRSVWEASCDFAKGVFNAYHFSLLLTSFNCVADPVLYCFVSETTHRDLARLRGACLAFLTCSRTGRAREAYPLGAPEASGKSGAQGEEPELLTKLHPAFQTPNSPGSGGFPTGRLA

The least precise scores are not listed. The source holds two more conditions with little spread; they are left out. Names with del lack the residues named; names with ins carry added residues between the positions named. For part of these data: The concentration of ogerin is not given here.

Variants of B1 are the subject of data set [1]. The experiment in a line: cAMP reporter score (Enrich2 score, wild type = 0); higher = more signal; HEK293T, FACS bins.
Variants of B1 are the subject of data set [2]. Nature of the data set: surface expression score (Enrich2 score, wild type = 0); higher = more signal; HEK293T, FACS bins.

Drawing on the GPR68 mutational scans of Howard et al. (2025), this text covers cAMP reporter score and surface expression score for 31 variants.

Turning to V246del, the cAMP reporter score in data set [1] (pH 5.5) was -1.27; in data set [1] (pH 6) it was -1.23; in data set [1] (pH 6, modulator: ogerin) it was -2.42; in data set [1] (pH 6.5, modulator: ogerin), -1.64. In data set [2], the surface expression score is -2.36.

For the variant V246_L248del, the cAMP reporter score in data set [1] (pH 5.5) is -1.57; in data set [1] (pH 6) it was -1.16; in data set [1] (pH 6, modulator: ogerin), -1.29; in data set [1] (pH 6.5, modulator: ogerin) it was -1.15. Also, the surface expression score in data set [2] is -2.6.

In the case of V246_L247insGS, the cAMP reporter score is -1.02 in data set [1] (pH 5.5); -1.7 in data set [1] (pH 6); -2 in data set [1] (pH 6, modulator: ogerin); -1.26 in data set [1] (pH 6.5, modulator: ogerin). In addition, in data set [2], the surface expression score was -2.12.

For L242del, the cAMP reporter score in data set [1] (pH 5.5) is -0.566; in data set [1] (pH 6), -0.398; in data set [1] (pH 6, modulator: ogerin), -0.118; in data set [1] (pH 6.5, modulator: ogerin), -0.152. Also, the surface expression score in data set [2] was -1.67.

For Y244del, the cAMP reporter score was -1.64 in data set [1] (pH 5.5); -1.15 in data set [1] (pH 6); -2.48 in data set [1] (pH 6, modulator: ogerin); -1.34 in data set [1] (pH 6.5, modulator: ogerin). In addition, the surface expression score in data set [2] is -2.61.

Regarding V246_L247insGSG, the cAMP reporter score in data set [1] (pH 5.5) was -1.56; in data set [1] (pH 6), -1.61; in data set [1] (pH 6, modulator: ogerin), -1.66; in data set [1] (pH 6.5, modulator: ogerin) it was -0.949. The surface expression score in data set [2] is -2.45.

In the case of L242_P243insGS, the cAMP reporter score is -0.548 in data set [1] (pH 5.5); -1.27 in data set [1] (pH 6); -1.1 in data set [1] (pH 6, modulator: ogerin); -0.526 in data set [1] (pH 6.5, modulator: ogerin). Also, the surface expression score in data set [2] was -2.12.

In the case of H245_V246insG, the cAMP reporter score in data set [1] (pH 5.5) was -2.5; in data set [1] (pH 6) it was -1.35; in data set [1] (pH 6, modulator: ogerin), -1.88; in data set [1] (pH 6.5, modulator: ogerin), -1.53. In addition, the surface expression score in data set [2] was -2.09.

As for P243_Y244insGS, the cAMP reporter score is -1.47 in data set [1] (pH 5.5); -0.679 in data set [1] (pH 6); -0.768 in data set [1] (pH 6, modulator: ogerin); -1.44 in data set [1] (pH 6.5, modulator: ogerin). For the same variant, the surface expression score in data set [2] was -2.18.

As for V246_L247del, the cAMP reporter score in data set [1] (pH 5.5) was -0.078; in data set [1] (pH 6) it was -0.466; in data set [1] (pH 6, modulator: ogerin), -1.04; in data set [1] (pH 6.5, modulator: ogerin), -0.116. For the same variant, the surface expression score in data set [2] is -2.24.

As to H245_V246insGSG, the cAMP reporter score in data set [1] (pH 5.5) was -1.6; in data set [1] (pH 6), -0.982; in data set [1] (pH 6, modulator: ogerin), -1.66; in data set [1] (pH 6.5, modulator: ogerin), -1.2. In addition, the surface expression score in data set [2] was -2.54.

Take Y244_H245insG: the cAMP reporter score in data set [1] (pH 5.5) is -1.11; in data set [1] (pH 6) it was -1.7; in data set [1] (pH 6, modulator: ogerin) it was -1.43; in data set [1] (pH 6.5, modulator: ogerin) it was -0.558. Also, the surface expression score in data set [2] was -1.86.

As for F241_L242del, the cAMP reporter score in data set [1] (pH 5.5) is -1.07; in data set [1] (pH 6), -0.364; in data set [1] (pH 6, modulator: ogerin), -1.47; in data set [1] (pH 6.5, modulator: ogerin), -0.793. For the same variant, the surface expression score in data set [2] was -2.32.

As to V246A, the cAMP reporter score was -0.009 in data set [1] (pH 5.5); -0.804 in data set [1] (pH 6); -0.384 in data set [1] (pH 6, modulator: ogerin); -0.443 in data set [1] (pH 6.5, modulator: ogerin). For the same variant, the surface expression score in data set [2] was -0.049.

Take V246C: the cAMP reporter score is 0.952 in data set [1] (pH 5.5); 0.034 in data set [1] (pH 6); -0.665 in data set [1] (pH 6, modulator: ogerin).

For V246Q, the cAMP reporter score in data set [1] (pH 5.5) is -1.28; in data set [1] (pH 6), -0.876; in data set [1] (pH 6, modulator: ogerin), -1.23; in data set [1] (pH 6.5, modulator: ogerin) it was -1.14. For the same variant, the surface expression score in data set [2] is -1.9.

Regarding V246S, the cAMP reporter score in data set [1] (pH 5.5) was 0.089; in data set [1] (pH 6), -0.197; in data set [1] (pH 6, modulator: ogerin), 0.188; in data set [1] (pH 6.5, modulator: ogerin), 0.133. Besides, in data set [2], the surface expression score is -0.806.

In the case of V246E, the cAMP reporter score was -0.534 in data set [1] (pH 5.5); -0.705 in data set [1] (pH 6); -1.17 in data set [1] (pH 6, modulator: ogerin); -0.706 in data set [1] (pH 6.5, modulator: ogerin). The surface expression score in data set [2] was -1.

As for V246P, the cAMP reporter score in data set [1] (pH 5.5) was -1.21; in data set [1] (pH 6), -2.17; in data set [1] (pH 6, modulator: ogerin), -1.73; in data set [1] (pH 6.5, modulator: ogerin) it was -1.31. For the same variant, the surface expression score in data set [2] is -1.86.

With V246I, the cAMP reporter score in data set [1] (pH 5.5) was 0.317; in data set [1] (pH 6) it was 0.922; in data set [1] (pH 6, modulator: ogerin) it was 0.326; in data set [1] (pH 6.5, modulator: ogerin) it was -0.657. The surface expression score in data set [2] is -0.436.

Consider V246H, for which the cAMP reporter score in data set [1] (pH 5.5) is -1.78; in data set [1] (pH 6) it was -1.68; in data set [1] (pH 6, modulator: ogerin), -2.1; in data set [1] (pH 6.5, modulator: ogerin) it was -0.279. In data set [2], the surface expression score was -1.95.

As for V246T, the cAMP reporter score in data set [1] (pH 5.5) was 0.472; in data set [1] (pH 6), 0.152; in data set [1] (pH 6, modulator: ogerin), 0.908; in data set [1] (pH 6.5, modulator: ogerin) it was -0.342. Besides, the surface expression score in data set [2] is -0.917.

Turning to V246Y, the cAMP reporter score in data set [1] (pH 5.5) is -1.58; in data set [1] (pH 6), -1.19; in data set [1] (pH 6, modulator: ogerin), -1.1; in data set [1] (pH 6.5, modulator: ogerin) it was -1.66. In addition, the surface expression score in data set [2] is -2.68.

Regarding V246L, the cAMP reporter score in data set [1] (pH 5.5) is 0.501; in data set [1] (pH 6), 0.222; in data set [1] (pH 6, modulator: ogerin), 0.336; in data set [1] (pH 6.5, modulator: ogerin), 0.93.

Consider V246R, for which the cAMP reporter score in data set [1] (pH 5.5) was -0.768; in data set [1] (pH 6) it was -0.188; in data set [1] (pH 6, modulator: ogerin) it was -0.841; in data set [1] (pH 6.5, modulator: ogerin), -0.871. In addition, the surface expression score in data set [2] is -2.12.

In the case of V246F, the cAMP reporter score in data set [1] (pH 5.5) was 0.445; in data set [1] (pH 6, modulator: ogerin) it was 0.287; in data set [1] (pH 6.5, modulator: ogerin), -0.363. For the same variant, the surface expression score in data set [2] was -0.389.

V246W: the cAMP reporter score in data set [1] (pH 5.5) was -1.62; in data set [1] (pH 6), -0.651; in data set [1] (pH 6, modulator: ogerin) it was -2.43; in data set [1] (pH 6.5, modulator: ogerin) it was 0.071. Besides, in data set [2], the surface expression score is -1.91.

V246G: the cAMP reporter score is 0.808 in data set [1] (pH 5.5); -0.816 in data set [1] (pH 6); 0.376 in data set [1] (pH 6, modulator: ogerin); -0.497 in data set [1] (pH 6.5, modulator: ogerin). Also, the surface expression score in data set [2] is -0.557.

Turning to V246D, the cAMP reporter score in data set [1] (pH 5.5) is -1.4; in data set [1] (pH 6) it was -0.706; in data set [1] (pH 6, modulator: ogerin), -1.39; in data set [1] (pH 6.5, modulator: ogerin), -0.802. Further, in data set [2], the surface expression score was -1.84.

Take V246N: the cAMP reporter score is -1.35 in data set [1] (pH 5.5); -0.844 in data set [1] (pH 6); -2.39 in data set [1] (pH 6.5, modulator: ogerin). The surface expression score in data set [2] is -2.05.

On to V246M, for which the cAMP reporter score is -0.032 in data set [1] (pH 5.5); -0.19 in data set [1] (pH 6); -0.181 in data set [1] (pH 6, modulator: ogerin); 0.231 in data set [1] (pH 6.5, modulator: ogerin). Also, the surface expression score in data set [2] was -0.469.
